Reference: patent US12365651B2, “Use of pirfenidone and derivatives for modulation of B lymphocyte activity and organ protection from acute tissue damage” (Washington University, priority 2017, dated 2025)

Tested on: Rosa26-DT Mlc2v-Cre mice

Cc1ccc(=O)n(-c2ccccc2)c1 [Pirfenidone, 5 methyl-1-phenyl-2-[H] pyridone]
expression of CD86 on cardiac B lymphocytes (0.5% pirfenidone chow, day 4 post-DTR treatment, animals with troponin>10): reduced | Ly6C+ CD64low/− monocytes (DT-injured hearts day 4, Pirfenidone chow vs normal chow, p=0.15): no significant differences | Ly6G+ neutrophils (DT-injured hearts day 4, Pirfenidone chow vs normal chow, p=0.27): no significant differences | number of myocardial CD45+ cells (DT-injured hearts day 4, Pirfenidone chow vs normal chow, p=0.8): no significant differences | Ly6Clow/− CD64+ macrophages (DT-injured hearts day 4, Pirfenidone chow vs normal chow, p=0.9): no significant differences | percentage of MHC-IIlowCCR2low macrophage subset (DT-injured hearts day 4, with vs without Pirfenidone, p=0.11): no significant difference | percentage of MHC-IIlowCCR2high macrophage subset (DT-injured hearts day 4, with vs without Pirfenidone, p=0.21): no significant difference | percentage of MHC-IIhighCCR2high macrophage subset (DT-injured hearts day 4, with vs without Pirfenidone, p=0.36): no significant difference | percentage of MHC-IIhighCCR2low macrophage subset (DT-injured hearts day 4, with vs without Pirfenidone, p=0.43): no significant difference | subset of CD19+CD11b− cells (DT-injury day 4, Pirfenidone vs control): significant (p=0.04) reduction | CD19+ cells/mg of tissue (DT-injury day 4, Pirfenidone vs control, p<0.01): significantly fewer | number of myocardial CD19+CD86high B lymphocytes (DT-injury model, day 4): significant (p<0.04) decrease | survival (Pirfenidone treated vs untreated DT-treated littermate controls, p=0.03): significantly improved | extent of Evans Blue dye uptake (day 4 post DT, Pirfenidone chow vs normal chow, p=0.26): no significant differences | serum troponin levels (day 4 post DT, Pirfenidone chow vs normal chow, p=0.34): no significant differences | prevalence of cardiac myocyte apoptosis (day 4 post DT, Pirfenidone chow vs normal chow, p=0.39): no significant differences | reduction in the percentage of CD19+ myocardial B lymphocytes (following DT-injury day 4, vs normal chow, p=0.02): > 3 fold
